The list shows a part of the results. These are enrichments in a pooled selection; single values are uncertain.
tested on: SARS-CoV-2 3CLpro (nsp5); experiment: substrate phage enrichment score (protease-eluted vs HEPES control, +1 offset) (ratio); higher = better cleaved substrate; conditions: selection round: 4; protease elution time: 15 min
Description: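 Random heptapeptide substrate phage display (M13 pIII fusion, heptapeptide between an N-terminal biotinylated AviTag GLNDIFEAQKIEWHE and pIII; phages immobilised on streptavidin) eluted by cleavage with 50 nM protease in 20 mM HEPES at 37 °C. Selected phages were NGS sequenced, and the enrichment score is (reads in protease sample + 1)/(reads in HEPES blank-selection control + 1).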

Row | Substance | substrate phage enrichment score
1 | QNTEAAH | 0.136
2 | TACLQGR | 14.7
3 | CDAAHHH | 0.704
4 | HDGCSPT | 0.947
5 | GRPLHGQ | > 52
6 | CIHRGGT | 0.812
7 | RHNIRAG | 0.12
8 | RSQCALH | 20.5
9 | ICVEVQR | 2.29
10 | AHWKGMN | 2.14
11 | SRTRLQG | 301
12 | CTDTLSR | > 202
13 | KPNQSHQ | > 50
14 | THSTVLS | > 23
15 | CKLRKPV | 2
16 | SNPNHMI | 3.39
17 | VKAQSPR | 1.56
18 | HQLASPK | 0.519
19 | ACPGYFE | 0.8
20 | SSTAHHH | 1.09
21 | RRTELDR | > 31
22 | SSVPWEN | > 23
23 | SDYVRPR | 1.18

Row | Substance | substrate phage enrichment score
24 | KAAHIPR | 17.7
25 | RDFGGTN | 8
26 | QSMQIRA | > 28
27 | TPPNSLR | 0.914
28 | ACQGNWR | 1.31
29 | IQCVVKP | 0.261
30 | ITDWHRT | 1.38
31 | SGSLDNH | 0.769
32 | CAAAHHK | 1.27
33 | LDFQGGS | 1.13
34 | CTQWPRS | 0.474
35 | KWTNLPR | > 24
36 | TQMSTTS | > 35
37 | QGGVIFS | > 21
38 | YAGMDTA | > 22
39 | NHGRAPR | > 31
40 | RHHTQTP | 0.875
41 | AQKVPLV | > 36
42 | APNTLKV | 0.0952
43 | EVRQPKD | 7.33
44 | PGDQMKS | 0.143
45 | ETFHASG | 2.38
46 | NPNEDAT | > 21

Row | Substance | substrate phage enrichment score
47 | LRNPRQQ | 0.667
48 | NPRCQHP | > 72
49 | QCVRSSN | > 29
50 | GGSYIMH | 1.55
51 | SASSSFR | > 21
52 | RDQPPAK | 5.83
53 | GHWGERP | 0.933
54 | GHNAVHN | > 31
55 | NTLGVPS | 0.3
56 | QHRYTQV | > 33
57 | KSSPAAH | 0.682
58 | ELNIQGG | > 40
59 | NHYDMTS | 1.15
60 | YGEVTLQ | 612
61 | KKQTLLQ | > 246
62 | MGSAAHH | 4.57
63 | QNFQGGS | 0.842
64 | FPSQCEQ | > 21
65 | EAWSPPA | > 32
66 | CQYIIKP | 2.83
67 | TKFLTNG | > 77
68 | SGRSTLQ | > 21
69 | KTGKEIP | 6.67

Row | Substance | substrate phage enrichment score
70 | ITPTRLQ | > 84
71 | AKLQSQW | > 73
72 | SVGAALQ | > 55
73 | PWSTGMQ | 0.208
74 | SSCGYRA | > 29
75 | APTPHTP | > 36
76 | SQSCRQH | 12
77 | RDCIREA | 0.667
78 | GPYGILY | > 80
79 | RCRTAET | > 37
80 | LKPVQTR | 3.67
81 | HPLKTDM | 1.5
82 | VTRESGA | 10.5
83 | NRRHCAR | > 219
84 | SAAGHHH | 2.14
85 | STSKPLL | 0.714
86 | KPQGGSA | 0.0833
87 | GDAPRGA | > 27
88 | AVSAKLQ | > 27
89 | AGVPTVQ | 22
90 | TPAHHHH | 0.478
91 | EHNSCLQ | 19.3
92 | RQSTSPK | 1.79

Row | Substance | substrate phage enrichment score
93 | INRSSMV | 14.8
94 | TAVTEGT | 0.6
95 | KRDTLTM | > 37
96 | WSEGTEG | 6.29
97 | TSGGVDA | 3.33
98 | CIGHNTR | 0.103
99 | SGPRSSY | 1.36
100 | SEAAHHH | 0.755
101 | FAPTPHV | 5.12
102 | DHSVPLR | > 22
103 | ARPSDVT | > 26
104 | ARLDEVT | 0.304
105 | KPVDVSR | > 137
106 | CSREVPV | > 37
107 | WYLTPNR | 0.867
108 | SLHSNRE | 0.222
109 | NQPSKPA | 1.85
110 | SHRTPTG | > 30
111 | RCRLHST | 11.5
112 | NKRLPRN | 0.812
113 | PRAAHHH | 1.52
114 | CSSKRPA | 2.96
115 | CKTGTEL | > 24

Row | Substance | substrate phage enrichment score
116 | PTRPSSR | 3.42
117 | PYPAAHH | > 183
118 | GNLYNRQ | > 24
119 | LDPSRVG | > 22
120 | QDSIMKG | > 33
121 | RHLSPDR | > 29
122 | RPGPQEQ | 1
123 | ACMANEN | > 34
124 | PKQYNEQ | 0.19
125 | PSFYGEP | 8
126 | CIFHAPE | 2.58
127 | RCLPSRP | 3.22
128 | KPTSLLD | 1.21
129 | SPANMSV | 0.0606
130 | ACKYNRQ | > 114
131 | CTRPLPG | 64.5
132 | CKNGTYA | > 28
133 | WCTPNAR | 2.83
134 | VNQRLNP | 47
135 | NQTSGRH | > 30
136 | FPPGAPR | > 22
137 | AQLQSGF | > 21
138 | SKYGVLG | > 31

Row | Substance | substrate phage enrichment score
139 | YSAAAHH | 1.17
140 | QTEPTII | 3.15
141 | ANCWPPR | 2.31
142 | APERGAP | 1.89
143 | LNWRVTT | 9
144 | KDQLTPN | > 21
145 | RRCNISR | 0.82
146 | PHVSKPA | 7.86
147 | IRCGMQR | > 25
148 | DAAVLQA | > 39
149 | LNNDSLG | 1.46
150 | PWQNGTR | 3
151 | DSGSVCE | > 181
152 | TRCNAAG | 2
153 | PHCTHLK | > 22
154 | RDQQLNR | 3.52
155 | ECATNQY | 3.17
156 | ADCLPGA | 0.692
157 | NGQFSSP | 1
158 | NDHTELQ | > 292
159 | RSISCPE | 1
160 | GKCSLQS | 32
161 | RMMPNKH | > 46

Row | Substance | substrate phage enrichment score
162 | TAAPVFQ | > 67
163 | TTESTPP | 2.29
164 | AETGTGH | 1.87
165 | DTLMPNR | > 29
166 | LWRHGMP | > 56
167 | NPSTRLQ | 13
168 | PAPRATT | 2.11
169 | KYFQGGS | 0.902
170 | CETVQPT | > 124
171 | SCHRAEF | > 21
172 | AQSPTLQ | > 124
173 | DNIVTGC | 5.5
174 | KSGAGAC | 5.6
175 | LQQKFIQ | 96
176 | LHEMNRQ | 4.8
177 | THNSNVR | > 22
178 | KKNNAYR | 3.88
179 | AHTATLQ | > 21
180 | NRFFQGG | 9.33
181 | SDWTLGN | 2.11
182 | TPYCSNT | 8.71
183 | LRAAHHH | 0.579
